From US20230272055A1, “ANTI-MUTANT CALRETICULIN (CALR) ANTIBODIES AND USES THEREOF” (Incyte Corporation, priority 2021, published 2023)

B1: 133 (antibody)
heavy: EVQLVQSGAEVKKPGASVKVSCKVSGYTLTELSMQWVRQAPGKGLEWMGGFDPDDAETMYAEKFQGRLTVTEDTSTDTVYMELSSLRSEDTAVYFCATSPGYDFFDYWGQGTLVTVSSASTKGPSVFPLAPSSKSTSGGTAALGCLVKDYFPEPVTVSWNSGALTSGVHTFPAVLQSSGLYSLSSVVTVPSSSLGTQTYICNVNHKPSNTKVDKRV[omitted - human IgG1 Fc with changes]
light: SYELTQPPSVSVAPGKTARITCGGDNIGSKSVHWYQQKPGQAPVLVVYDDSDRPSGIPERFSGSNSGNTATLTINRVEAGDEADYYCQVWDSSNDLLIFGGGTKLTVLGQPKAAPSVTLFPPSSEELQANKATLVCLISDFYPGAVTVAWKADSSPVKAGVETTTPSKQSNNKYAASSYLSLTPEQWKSHRSYSCQVTHEGSTVEKTVAPTECS
B2: 140 (antibody)
heavy: EVQLVQSGAEVKKPGASVKVSCKVSGYTLTELSMQWVRQAPGKGLEWMGGFDPDAGETMYAEKFQGRLTVTEDTSTDTVYMELSSLRSEDTAVYFCATSPGYDFFDYWGQGTLVTVSSASTKGPSVFPLAPSSKSTSGGTAALGCLVKDYFPEPVTVSWNSGALTSGVHTFPAVLQSSGLYSLSSVVTVPSSSLGTQTYICNVNHKPSNTKVDKRV[omitted - human IgG1 Fc with changes]
light: B1 light with E3V, N75S
B3: 131 (antibody)
heavy: EVQLVQSGAEVKKPGASVKVSCKVSGYTLTELSMQWVRQAPGKGLEWMGGFDPDSGETMYAEKFQGRLTVTEDTSTDTVYMELSSLRSEDTAVYFCATSPGYDFFDYWGQGTLVTVSSASTKGPSVFPLAPSSKSTSGGTAALGCLVKDYFPEPVTVSWNSGALTSGVHTFPAVLQSSGLYSLSSVVTVPSSSLGTQTYICNVNHKPSNTKVDKRV[omitted - human IgG1 Fc with changes]
light: B1 light
B4: 76 (antibody)
heavy: EVQLVQSGAEVKKPGASVKVSCKVSGYTLTELSMQWVRQAPGKGLEWMGGFDPDAGETMYAEKFQGRLTVTEDTSTDTVYMELRSLTSEDTALYFCATSPGYDFFDYWGQGTLVTVSSASTKGPSVFPLAPSSKSTSGGTAALGCLVKDYFPEPVTVSWNSGALTSGVHTFPAVLQSSGLYSLSSVVTVPSSSLGTQTYICNVNHKPSNTKVDKRV[omitted - human IgG1 Fc with changes]
light: B1 light with E3V, D25N, N75S
B5: 176 (antibody)
heavy: EVQLVQSGAEVKKPGASVKVSCKVSGYTLTELSMQWVRQAPGKGLEWMGGFDPDAGETMYAEKFQGRLTVTEDTSTDTVYMELSSLRSEDTAVYFCATSPGYDFFDYWGQGTLVTVSSASTKGPSVFPLAPSSKSTSGGTAALGCLVKDYFPEPVTVSWNSGALTSGVHTFPAVLQSSGLYSLSSVVTVPSSSLGTQTYICNVNHKPSNTKVDKRV[omitted - human IgG1 Fc with changes]
light: SYVLTQPPSVSVAPGQTARITCGGSDIGDEIVHWYQQKPGQAPVLVVYDDSDRPSGIPERFSGSNSGNTATLTISRAQAGDEADYYCQVWDSSSDHLIFGGGTKLTVLGQPKAAPSVTLFPPSSEELQANKATLVCLISDFYPGAVTVAWKADSSPVKAGVETTTPSKQSNNKYAASSYLSLTPEQWKSHRSYSCQVTHEGSTVEKTVAPTECS
B6: 62 (antibody)
heavy: EVQLVQSGAEVKKPGASVKVSCKVSGYTLTELSMQWVRQAPGKGLEWMGGFDPDSGETMYAEKFQGRLTVTEDTSTDTVYMELSSLRSEDTAVYFCATSPGYDFFDYWGQGTLVTVSSASTKGPSVFPLAPSSKSTSGGTAALGCLVKDYFPEPVTVSWNSGALTSGVHTFPAVLQSSGLYSLSSVVTVPSSSLGTQTYICNVNHKPSNTKVDKRV[omitted - human IgG1 Fc with changes]
light: QSALTQPASVSGSPGQSITISCTGTSSDVGGYNYVSWYQQHPGKAPKLMIYEVSNRPSGVSNRFSGSNSGNTATLTINRVEAGDEADYYCQVWDSSNDLLIFGGGTKLTVLGQPKAAPSVTLFPPSSEELQANKATLVCLISDFYPGAVTVAWKADSSPVKAGVETTTPSKQSNNKYAASSYLSLTPEQWKSHRSYSCQVTHEGSTVEKTVAPTECS
B7: 143 (antibody)
heavy: EVQLVQSGAEVKKPGASVKVSCKVSGYTLTELSMQWVRQAPGKGLEWMGGFDPDDAETMYAEKFQGRLTVTEDTSTDTVYMELSSLRSEDTAVYFCATSPGYDFFDYWGQGTLVTVSSASTKGPSVFPLAPSSKSTSGGTAALGCLVKDYFPEPVTVSWNSGALTSGVHTFPAVLQSSGLYSLSSVVTVPSSSLGTQTYICNVNHKPSNTKVDKRV[omitted - human IgG1 Fc with changes]
light: B1 light with E3V, N75S
B8: 171 (antibody)
heavy: EVQLVQSGAEVKKPGASVKVSCKVSGYTLTELSMQWVRQAPGKGLEWMGGFDPDAGETMYAEKFQGRLTVTEDTSTDTVYMELRSLTSEDTALYFCATSPGYDFFDYWGQGTLVTVSSASTKGPSVFPLAPSSKSTSGGTAALGCLVKDYFPEPVTVSWNSGALTSGVHTFPAVLQSSGLYSLSSVVTVPSSSLGTQTYICNVNHKPSNTKVDKRV[omitted - human IgG1 Fc with changes]
light: B5 light
B9: 127 (antibody)
heavy: EVQLVQSGAEVKKPGASVKVSCKVSGYTLTELSMQWVRQAPGKGLEWMGGFDPDEGETMYAEKFQGRLTVTEDTSTDTVYMELRSLTSEDTALYFCATSPGYDFFDYWGQGTLVTVSSASTKGPSVFPLAPSSKSTSGGTAALGCLVKDYFPEPVTVSWNSGALTSGVHTFPAVLQSSGLYSLSSVVTVPSSSLGTQTYICNVNHKPSNTKVDKRV[omitted - human IgG1 Fc with changes]
light: B1 light
B10: 132 (antibody)
heavy: EVQLVQSGAEVKKPGASVKVSCKVSGYTLTELSMQWVRQAPGKGLEWMGGFDPDEGETMYAEKFQGRLTVTEDTSTDTVYMELSSLRSEDTAVYFCATSPGYDFFDYWGQGTLVTVSSASTKGPSVFPLAPSSKSTSGGTAALGCLVKDYFPEPVTVSWNSGALTSGVHTFPAVLQSSGLYSLSSVVTVPSSSLGTQTYICNVNHKPSNTKVDKRV[omitted - human IgG1 Fc with changes]
light: B1 light
B11: 187 (antibody)
heavy: EVQLVQSGAEVKKPGASVKVSCKVSGYTLTELSMQWVRQAPGKGLEWMGGFDPDSGETMYAEKFQGRLTVTEDTSTDTVYMELSSLRSEDTAVYFCATSPGYDFFDYWGQGTLVTVSSASTKGPSVFPLAPSSKSTSGGTAALGCLVKDYFPEPVTVSWNSGALTSGVHTFPAVLQSSGLYSLSSVVTVPSSSLGTQTYICNVNHKPSNTKVDKRV[omitted - human IgG1 Fc with changes]
light: B5 light with A77V, Q78E
B12: 82 (antibody)
heavy: EVQLVQSGAEVKKPGASVKVSCKVSGYTLTELSMQWVRQAPGKGLEWMGGFDPDSGETMYAEKFQGRLTVTEDTSTDTVYMELSSLRSEDTAVYFCATSPGYDFFDYWGQGTLVTVSSASTKGPSVFPLAPSSKSTSGGTAALGCLVKDYFPEPVTVSWNSGALTSGVHTFPAVLQSSGLYSLSSVVTVPSSSLGTQTYICNVNHKPSNTKVDKRV[omitted - human IgG1 Fc with changes]
light: B1 light with E3V, D25N, N75S
B13: 81 (antibody)
heavy: EVQLVQSGAEVKKPGASVKVSCKVSGYTLTELSMQWVRQAPGKGLEWMGGFDPDAGETMYAEKFQGRLTVTEDTSTDTVYMELSSLRSEDTAVYFCATSPGYDFFDYWGQGTLVTVSSASTKGPSVFPLAPSSKSTSGGTAALGCLVKDYFPEPVTVSWNSGALTSGVHTFPAVLQSSGLYSLSSVVTVPSSSLGTQTYICNVNHKPSNTKVDKRV[omitted - human IgG1 Fc with changes]
light: B1 light with E3V, D25N, N75S
B14: 77 (antibody)
heavy: EVQLVQSGAEVKKPGASVKVSCKVSGYTLTELSMQWVRQAPGKGLEWMGGFDPDSGETMYAEKFQGRLTVTEDTSTDTVYMELRSLTSEDTALYFCATSPGYDFFDYWGQGTLVTVSSASTKGPSVFPLAPSSKSTSGGTAALGCLVKDYFPEPVTVSWNSGALTSGVHTFPAVLQSSGLYSLSSVVTVPSSSLGTQTYICNVNHKPSNTKVDKRV[omitted - human IgG1 Fc with changes]
light: B1 light with E3V, D25N, N75S

These molecules were tested against T1, recombinant MBP-mutCALR Type 1 fusion protein (Homo sapiens, UniProt P27797, DEL40-40) (assay: Biacore SPR binding kinetics, Experiment 2 (parental and variant antibodies)). Details: Biacore 8K, 25° C., 1:1 binding model.
T1 construct: His6 (N); purchased Cepter (cepterbiopartners.com), custom made
Description: The amino acid sequence of recombinant MBP-mutCALR Type 1 fusion protein used in Experiments 1 and 2 is:
Experiment 2: Recombinant MBP-mutCALR Type 1 fusion protein was custom made at Cepter (cepterbiopartners.com). Data for the interaction of antibodies with recombinant mutCALR protein were collected at 25° C. on a Biacore 8K instrument (Cytiva, Marlborough, Mass.), and all reagents were obtained from Cytiva unless otherwise specified. The experiments were conducted using Tris-buffered saline (pH 7.2), 0.005% Surfactant P20, 1 mM CaCl2) as running buffer. To prepare the capture surfaces, anti-human IgG (Fc) antibodies (Product #29234600) was amine-coupled onto a CM4 chip (Product #BR100534) under standard conditions using an Amine Coupling Kit (Product #BR100050). Anti-mutCALR antibodies were captured onto the chip surface by injecting over flow cell 2 only at a flow rate of 10 μL/min for 30 seconds. […] Recombinant MBP-mutCALR Type 1 fusion protein was prepared at nominal concentrations of 0, 0.75, 2.22, 6.67, 20, and 60 nM and injected over both flow cells 1 and 2 for 150 seconds at a flow rate of 69 L/min, followed by a 230-second dissociation phase at the same flow rate. The kinetics parameters were obtained by applying 1:1 binding model to fit the data from multiple-cycle injection experiments using Biacore Insight Evaluation software.

ka [M⁻¹ s⁻¹] | kd [s⁻¹] | Molecule
8.51e+06 | 0.00702 | B1
763000 | 0.00541 | B2
996000 | 0.00481 | B3
3.16e+06 | 0.0155 | B4
994000 | 0.00278 | B5
3.52e+06 | 0.00621 | B6
5.74e+06 | 0.00753 | B7
6.57e+06 | 0.0109 | B8
6.92e+06 | 0.00899 | B9
1.13e+06 | 0.00244 | B10
1e+07 | 0.0163 | B11
762000 | 0.00475 | B12
746000 | 0.00494 | B13
3.13e+06 | 0.0175 | B14

Changes are numbered by the printed parent chain.
